Experimental data: US20250325717A1, “ANTI-NUCLEOPHOSMIN 1 ANTIBODY AND ANTIBODY CONJUGATE COMBINATION THERAPIES” (The Children's Medical Center Corporation, priority 2022, published 2025)

Assays:
[1] = tested on: Npm1c on Dmnt3a R882H mutant cells; test: Staining of Dnmt3a R882H mutant (pre-leukemia) cells; format: cell-based; details: single Dmnt3a R882H mutant cells; vs IgG control
Source text: DNMT3a mutations are directly associated with clonal hematopoiesis of indeterminate potential (CHIP) and pre-leukemia. To test whether Ab2.2 could detect Npm1c on Dmt3a R882H mutant cells Dmnt3a^R882H/−, and Dmnt3a^R882H/−/Npm1c cells were stained with either IgG control or Ab2.2.

[2] = tested on: AML bone marrow blasts; test: Flow cytometry of AML patient bone marrow samples; format: cell-based, human
Source text: To determine whether Ab2.2 targets NPM1 in cancer cells in vitro patient samples collected from The Dana-Farber Cancer Institute (DFCI) and the United Kingdom (UK) were used. Cells were isolated from the bone marrow of 12 acute myeloid leukemia (AML) patients from DFCI (FIG. 16) and 15 AML patients from UK (FIG. 18) and analyzed using flow cytometry (FIGS. 17A-17B and FIGS. 19A-19C). […] Furthermore, NPM1c blasts are CD34-low, allowing examination of LSC population, which are highly bound by Ab2.2. Therefore, Ab2.2 binds best to LSCs in NPM1c patient marrow (FIGS. 19D-19E). The results from DFCI indicate that Ab2.2 strongly stains the blasts, agnostic to mutational status, disease state, or prior treatment. […] Also, in NPM1c patients who's LSCs are CD34-, Ab2.2 strongly stains and therefore Ab2.2 will target leukemia initiating cells.

[3] = tested on: human tumor models; test: Flow cytometry binding to in vitro tumor models; format: cell-based; details: various tumor types
Source text: To assess the ability of Ab2.2 to bind to human tumors, in vitro models of various types were investigated using flow cytometry. The tumor models assessed for Ab2.2 binding were murine melanoma, lung carcinoma (human), Laryngeal carcinoma, colorectal (human and murine), Ewing sarcoma (Human), Pharyngeal carcinoma (Human), Pancreatic carcinoma (Human), Oesophageal cancer (Human), Osteosarcoma (Human), Neuroblastomas (Human), Brain tumors (Human), Hematological malignancies, Fibrosarcoma, Prostate cancers, and Pancreatic adenocarcinoma (Murine) (FIGS. 27A-27O).

[4] = target: T1, NPM1 (Homo sapiens, UniProt P06748); test: Western blot validation on WCE and crude membrane lysate; format: binding; details: WCE and crude membrane (Mem) lysate
T1 construct: endogenous in cells
T1 sequence (P06748 whole entry, species assumed): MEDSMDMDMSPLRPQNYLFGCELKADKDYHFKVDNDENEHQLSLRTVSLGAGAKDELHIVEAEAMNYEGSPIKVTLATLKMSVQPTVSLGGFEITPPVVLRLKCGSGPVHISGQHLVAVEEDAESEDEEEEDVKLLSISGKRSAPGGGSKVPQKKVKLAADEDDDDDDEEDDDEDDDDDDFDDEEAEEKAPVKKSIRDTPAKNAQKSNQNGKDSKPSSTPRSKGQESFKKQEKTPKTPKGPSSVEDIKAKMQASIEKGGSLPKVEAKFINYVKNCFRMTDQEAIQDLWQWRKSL
Description: The Ab2.2 antibody was further validated using western blot and compared to commercially available antibodies. The commercially available antibody was supplied from Santa Cruz (SC FC8791). Two sources of lysate were evaluated, WCE and crude membrane (Mem). […] Therefore, commercially available and Ab2.2 show near-identical banding pattern to NPM1 (FIG. 15B).

[5] = tested on: MC38 mouse colorectal adenocarcinoma; test: Efficacy model 4: MC38 solid tumor syngeneic model; format: in vivo, mice; details: 10 mg/kg, three doses (1 per week); day 10 and day 13
Description: The solid tumor activity of Ab2.2 was assessed in vivo using efficacy model 4. In efficacy model 4, mice that had received transplantation were subjected to weekly treatment of Ab2.2 and assessed for overall survival, calculation of tumor burden and molecular phenotyping (FIG. 25A). The transplanted cells were from a MC38 mouse colorectal adenocarcinoma. A syngeneic mouse model was used. The control group received 10 mg/kg dose (IgG) and the target group received 10 mg/kg dose (Ab2.2). A total of three doses (1 per week) were administered.

[6] = tested on: OCI-AML3 cells (human AML); test: Survival of SCID CB17 mice engrafted with OCI-AML3 cells; format: in vivo; details: 10 mg/kg weekly, 4 doses
Description: The ability of Ab2.2 to extend lifespan in mouse models xenografted with human AML cell line was assessed. SCID CB17 mice received transplantation of OCI-AML3 cells (human AML). Next, engrafted mice received weekly treatment of Ab2.2 (target group) or IgG (control group). The target group received 10 mg/kg dose of Ab2.2. Mice received a total of 4 doses. Mice were assessed for overall survival, and molecular phenotyping (FIG. 30A).
Antibody binding was assessed using flow cytometry (FIG. 30B). […] (FIG. 30C). Therefore, lifespan extension is observed in mice engrafted with human AML cell line and with natural killer (NK) cells and complement that are treated with Ab2.2.

[7] = In vivo toxicity in wild-type mice; parameters: species or system C57BL/6J mice; details: 2.5, 5 or 10 mg/kg IP, one dose per week, four doses; D1-D27
Description: To assess the toxicity of Ab2.2 in vivo, wild-type (WT; C57BL/6J) mice received weekly treatment of Ab2.2. There were 5 mice per group. The target group received Ab2.2 administered by IP injection at a dose of 2.5 mg/kg, 5 mg/kg, or 10 mg/kg. The control group was administered 5 mg/kg of IgG (FIG. 20A). Four doses total were delivered, one dose per week. Weekly bleeds were performed for sample collection on days (D) 1, 7, 14, 20 and 27 of treatment. On D1, D7, D14, D20 and D27 mice were weighed, and samples were tested for white blood cells (WBC), platelets (PLT) and hemoglobin (HGB).

[8] = tested on: PDX (MLL-R) cells (human AML-PDX); test: Survival of SCID CB17 mice engrafted with human AML-PDX; format: in vivo; details: 10 mg/kg weekly, 4 doses
Description: The ability of Ab2.2 to extend lifespan in mouse models xenografted with human AML-PDX was assessed. SCID CB17 mice received transplantation of PDX (MLL-R) cells (human AML-PDX). Next, engrafted mice received weekly treatment of Ab2.2 (target group) or IgG (control group). The target group received 10 mg/kg dose of Ab2.2. Mice received a total of 4 doses. Mice were assessed for overall survival, and molecular phenotyping (FIG. 31A).
Antibody binding was assessed using flow cytometry (FIG. 31B). […] (FIG. 31C). Therefore, lifespan extension is observed in mice engrafted with human AML-PDX cell line and with natural killer (NK) cells and complement that are treated with Ab2.2.

B1: Ab2.2 (antibody)
heavy: [sequence of about 100 residues not given]WRNNAFDYWGQGTLVTVSS[sequence of human IgG1 constant region not given]
light: SSELTQDPAVSVALGQTVRITCQGDSLRSYYASWYQQKPGQAPVLVIYGKNNRPSGIPDRFSGSSSGNTASLTITGAQAEDEADYYCNSSPRLKHRVVFGGGTKLTVLGQPKAAPSVTLFPPSSEELQANKATLVCLISDFYPGAVTVAWKADSSPVKAGVETTTPSKQSNNKYAASSYLSLTPEQWKSHRSYSCQVTHEGSTVEKTVAPTECS
surface detection of Npm1c [1]: high surface detection
binding to AML bone marrow blasts ([2]; DFCI patient samples (Patient 5), flow cytometry): strongly binds
binding to LSC population ([2]; NPM1c patient marrow, CD34-low blasts): highly bound
binding to NPM1c AML bone marrow ([2]; UK patient samples, flow cytometry): strongly binds
binding to tumor models in vitro [3]: binds to a diverse set of human tumor models
western blot band [4]: around 38 kB
tumor volume [5]: reduces tumor volume
survival after transplantation [6]: over 40 days
survival compared with IgG treated mice ([6]; p=0.0015): significantly longer
toxicity in mice (weight, WBC, PLT, HGB) [7]: did not result in observable toxicity
survival after transplantation [8]: over 60 days
survival compared with IgG treated mice ([8]; p=0.0023): significantly longer
